The values below come from the GPR68 mutational scans of Howard et al. (2025).

Sequences and labels used below:
B1: GPR68, Q15743 (parent)
chain: MGNITADNSSMSCTIDHTIHQTLAPVVYVTVLVVGFPANCLSLYFGYLQIKARNELGVYLCNLTVADLFYICSLPFWLQYVLQHDNWSHGDLSCQVCGILLYENIYISVGFLCCISVDRYLAVAHPFRFHQFRTLKAAVGVSVVIWAKELLTSIYFLMHEEVIEDENQHRVCFEHYPIQAWQRAINYYRFLVGFLFPICLLLASYQGILRAVRRSHGTQKSRKDQIQRLVLSTVVIFLACFLPYHVLLLVRSVWEASCDFAKGVFNAYHFSLLLTSFNCVADPVLYCFVSETTHRDLARLRGACLAFLTCSRTGRAREAYPLGAPEASGKSGAQGEEPELLTKLHPAFQTPNSPGSGGFPTGRLA

Series [1] covers variants of B1. Put plainly: cAMP reporter score (Enrich2 score, wild type = 0); higher = more signal; HEK293T, FACS bins.
Variants of B1 are the subject of series [2]. Put plainly: surface expression score (Enrich2 score, wild type = 0); higher = more signal; HEK293T, FACS bins.

Scores with a large standard error are left out. Two further conditions of the source, in which the scores hardly spread, are not listed. Read del as a deletion of the residues named and ins as an insertion between two positions. For part of these data: The concentration of ogerin is not given here.

Consider R213P, for which the cAMP reporter score in series [1] (pH 5.5) was -0.446; in series [1] (pH 6), -0.979; in series [1] (pH 6, modulator: ogerin), -0.766; in series [1] (pH 6.5, modulator: ogerin), -0.247. Further, the surface expression score in series [2] stood at 1.2.

Consider R213S, for which the cAMP reporter score in series [1] (pH 5.5) was 0.173; in series [1] (pH 6), 1.91; in series [1] (pH 6, modulator: ogerin), 0.217; in series [1] (pH 6.5, modulator: ogerin) it was -0.817. In addition, the surface expression score in series [2] stood at 0.325.

As for R213I, the cAMP reporter score in series [1] (pH 5.5) is 0.527; in series [1] (pH 6) it was -0.775; in series [1] (pH 6, modulator: ogerin), 0.508; in series [1] (pH 6.5, modulator: ogerin), 0.025. Further, the surface expression score in series [2] is -1.25.

Regarding R213Y, the cAMP reporter score in series [1] (pH 5.5) is 0.959; in series [1] (pH 6), -0.025; in series [1] (pH 6, modulator: ogerin) it was 1; in series [1] (pH 6.5, modulator: ogerin) it was 0.186. In addition, in series [2], the surface expression score was -0.225.

On to R213C, for which the cAMP reporter score came out at 1.36 in series [1] (pH 5.5); 1.79 in series [1] (pH 6); 0.475 in series [1] (pH 6, modulator: ogerin); 0.565 in series [1] (pH 6.5, modulator: ogerin). Moreover, the surface expression score in series [2] is 0.247.

R213D: the cAMP reporter score in series [1] (pH 5.5) is -0.403; in series [1] (pH 6), -1.24; in series [1] (pH 6, modulator: ogerin), -0.458; in series [1] (pH 6.5, modulator: ogerin), -0.642. In addition, the surface expression score in series [2] is -0.505.

On to R213M, for which the cAMP reporter score was 0.244 in series [1] (pH 5.5); 1.33 in series [1] (pH 6); 0.169 in series [1] (pH 6, modulator: ogerin); 0.458 in series [1] (pH 6.5, modulator: ogerin). Also, the surface expression score in series [2] was -0.189.

Turning to R213W, the cAMP reporter score in series [1] (pH 5.5) was determined as 1.53; in series [1] (pH 6) it was 0.869; in series [1] (pH 6, modulator: ogerin) it was 1.55; in series [1] (pH 6.5, modulator: ogerin), 1.49. Also, the surface expression score in series [2] came out at 0.072.

On to R213V, for which the cAMP reporter score was -0.456 in series [1] (pH 5.5); -0.766 in series [1] (pH 6, modulator: ogerin); 0.316 in series [1] (pH 6.5, modulator: ogerin). The surface expression score in series [2] is -0.445.

On to R213H, for which the cAMP reporter score was -0.406 in series [1] (pH 5.5); -0.085 in series [1] (pH 6); -0.574 in series [1] (pH 6, modulator: ogerin); -0.327 in series [1] (pH 6.5, modulator: ogerin). The surface expression score in series [2] is -0.572.

In the case of R213E, the cAMP reporter score in series [1] (pH 5.5) is -0.149; in series [1] (pH 6) it was -0.667; in series [1] (pH 6, modulator: ogerin), -0.129; in series [1] (pH 6.5, modulator: ogerin), 0.218. For the same variant, in series [2], the surface expression score is -0.21.

With R213L, the cAMP reporter score in series [1] (pH 5.5) was -0.271; in series [1] (pH 6), 0.035; in series [1] (pH 6, modulator: ogerin), -0.051; in series [1] (pH 6.5, modulator: ogerin) it was -0.747. The surface expression score in series [2] is -1.56.

In the case of R213G, the cAMP reporter score in series [1] (pH 5.5) is 0.664; in series [1] (pH 6), 0.343; in series [1] (pH 6, modulator: ogerin), 1.12; in series [1] (pH 6.5, modulator: ogerin), -0.12. In addition, the surface expression score in series [2] is -0.186.

As for R213K, the cAMP reporter score in series [1] (pH 5.5) stood at 0.889; in series [1] (pH 6, modulator: ogerin), 1.39; in series [1] (pH 6.5, modulator: ogerin), 0.659. The surface expression score in series [2] stood at 1.64.

As for R213T, the cAMP reporter score is -0.087 in series [1] (pH 5.5); 1.17 in series [1] (pH 6); 0.036 in series [1] (pH 6, modulator: ogerin); 0.282 in series [1] (pH 6.5, modulator: ogerin). Further, in series [2], the surface expression score was -1.24.

Regarding R213F, the cAMP reporter score in series [1] (pH 5.5) is -0.475; in series [1] (pH 6), -0.807; in series [1] (pH 6, modulator: ogerin), 0.151; in series [1] (pH 6.5, modulator: ogerin), -1. For the same variant, the surface expression score in series [2] was -1.84.

Consider Q227C, for which the cAMP reporter score worked out at 0.247 in series [1] (pH 5.5); 0.644 in series [1] (pH 6); 0.296 in series [1] (pH 6, modulator: ogerin); 0.135 in series [1] (pH 6.5, modulator: ogerin). For the same variant, the surface expression score in series [2] amounted to 0.27.

Q227L: the cAMP reporter score in series [1] (pH 5.5) was 1.13; in series [1] (pH 6), 1.56; in series [1] (pH 6, modulator: ogerin) it was 0.592; in series [1] (pH 6.5, modulator: ogerin), 2.24. Moreover, in series [2], the surface expression score amounted to 0.134.

Turning to Q227A, the cAMP reporter score was 0.579 in series [1] (pH 5.5); -0.628 in series [1] (pH 6); 0.75 in series [1] (pH 6, modulator: ogerin); 0.427 in series [1] (pH 6.5, modulator: ogerin). Moreover, the surface expression score in series [2] was 1.51.

Q227H: the cAMP reporter score came to 0.36 in series [1] (pH 5.5); 0.786 in series [1] (pH 6); 0.419 in series [1] (pH 6, modulator: ogerin); 0.181 in series [1] (pH 6.5, modulator: ogerin). Further, in series [2], the surface expression score was found to be 0.079.

With Q227K, the cAMP reporter score is -0.255 in series [1] (pH 5.5); 0.929 in series [1] (pH 6); -0.665 in series [1] (pH 6, modulator: ogerin); 0.596 in series [1] (pH 6.5, modulator: ogerin). In series [2], the surface expression score was -1.09.

For the variant Q227F, the cAMP reporter score in series [1] (pH 5.5) came out at 0.366; in series [1] (pH 6, modulator: ogerin), 0.899; in series [1] (pH 6.5, modulator: ogerin), 1.61. The surface expression score in series [2] is -1.13.

As for Q227G, the cAMP reporter score in series [1] (pH 5.5) was found to be 1.1; in series [1] (pH 6) it was 0.557; in series [1] (pH 6, modulator: ogerin), 1.5. The surface expression score in series [2] turned out to be 0.509.

Turning to Q227E, the cAMP reporter score in series [1] (pH 5.5) was 0.162; in series [1] (pH 6) it was -0.698; in series [1] (pH 6, modulator: ogerin) it was 0.039; in series [1] (pH 6.5, modulator: ogerin), -0.658. Further, the surface expression score in series [2] is -0.717.

Turning to Q227I, the cAMP reporter score in series [1] (pH 5.5) is 0.172; in series [1] (pH 6), -0.876; in series [1] (pH 6, modulator: ogerin), 0.083; in series [1] (pH 6.5, modulator: ogerin) it was -1.09. Further, the surface expression score in series [2] was -1.35.

In the case of Q219Y, the cAMP reporter score in series [1] (pH 5.5) is 0.783; in series [1] (pH 6), -0.821; in series [1] (pH 6, modulator: ogerin) it was 0.183; in series [1] (pH 6.5, modulator: ogerin), -0.487. Also, the surface expression score in series [2] is 0.306.

Q219V: the cAMP reporter score was 0.922 in series [1] (pH 5.5); 0.736 in series [1] (pH 6, modulator: ogerin); 0.408 in series [1] (pH 6.5, modulator: ogerin). In addition, in series [2], the surface expression score is 2.17.

With Q219G, the cAMP reporter score is 0.313 in series [1] (pH 5.5); -1.07 in series [1] (pH 6); -0.32 in series [1] (pH 6, modulator: ogerin); -0.768 in series [1] (pH 6.5, modulator: ogerin). Further, the surface expression score in series [2] was -0.075.

Q219L: the cAMP reporter score in series [1] (pH 5.5) is 0.119; in series [1] (pH 6) it was 1.08; in series [1] (pH 6, modulator: ogerin) it was -0.197; in series [1] (pH 6.5, modulator: ogerin), -0.78. Also, in series [2], the surface expression score came to 0.203.

Q219F: the cAMP reporter score in series [1] (pH 5.5) is 0.42; in series [1] (pH 6) it was -1.16; in series [1] (pH 6, modulator: ogerin), -0.76; in series [1] (pH 6.5, modulator: ogerin), 0.171. In series [2], the surface expression score is -0.671.

Turning to Q219W, the cAMP reporter score in series [1] (pH 5.5) is -0.238; in series [1] (pH 6), -0.78; in series [1] (pH 6, modulator: ogerin), -0.598; in series [1] (pH 6.5, modulator: ogerin), -1.59. The surface expression score in series [2] was -0.329.
